The whole screen tested about 310,000 compounds, of which about 2,200 (0.71%) showed an effect of 50% or more. The effect is printed as a negative number. The list shows a part of the results.
Molecular target: human ether-à-go-go-related gene (hERG) potassium channel (human, UniProt Q12809)
Assay: primary screen, population patch clamp on CHO cells stably expressing hERG

Chain of human ether-à-go-go-related gene (hERG) potassium channel (Q12809 whole entry, looked up): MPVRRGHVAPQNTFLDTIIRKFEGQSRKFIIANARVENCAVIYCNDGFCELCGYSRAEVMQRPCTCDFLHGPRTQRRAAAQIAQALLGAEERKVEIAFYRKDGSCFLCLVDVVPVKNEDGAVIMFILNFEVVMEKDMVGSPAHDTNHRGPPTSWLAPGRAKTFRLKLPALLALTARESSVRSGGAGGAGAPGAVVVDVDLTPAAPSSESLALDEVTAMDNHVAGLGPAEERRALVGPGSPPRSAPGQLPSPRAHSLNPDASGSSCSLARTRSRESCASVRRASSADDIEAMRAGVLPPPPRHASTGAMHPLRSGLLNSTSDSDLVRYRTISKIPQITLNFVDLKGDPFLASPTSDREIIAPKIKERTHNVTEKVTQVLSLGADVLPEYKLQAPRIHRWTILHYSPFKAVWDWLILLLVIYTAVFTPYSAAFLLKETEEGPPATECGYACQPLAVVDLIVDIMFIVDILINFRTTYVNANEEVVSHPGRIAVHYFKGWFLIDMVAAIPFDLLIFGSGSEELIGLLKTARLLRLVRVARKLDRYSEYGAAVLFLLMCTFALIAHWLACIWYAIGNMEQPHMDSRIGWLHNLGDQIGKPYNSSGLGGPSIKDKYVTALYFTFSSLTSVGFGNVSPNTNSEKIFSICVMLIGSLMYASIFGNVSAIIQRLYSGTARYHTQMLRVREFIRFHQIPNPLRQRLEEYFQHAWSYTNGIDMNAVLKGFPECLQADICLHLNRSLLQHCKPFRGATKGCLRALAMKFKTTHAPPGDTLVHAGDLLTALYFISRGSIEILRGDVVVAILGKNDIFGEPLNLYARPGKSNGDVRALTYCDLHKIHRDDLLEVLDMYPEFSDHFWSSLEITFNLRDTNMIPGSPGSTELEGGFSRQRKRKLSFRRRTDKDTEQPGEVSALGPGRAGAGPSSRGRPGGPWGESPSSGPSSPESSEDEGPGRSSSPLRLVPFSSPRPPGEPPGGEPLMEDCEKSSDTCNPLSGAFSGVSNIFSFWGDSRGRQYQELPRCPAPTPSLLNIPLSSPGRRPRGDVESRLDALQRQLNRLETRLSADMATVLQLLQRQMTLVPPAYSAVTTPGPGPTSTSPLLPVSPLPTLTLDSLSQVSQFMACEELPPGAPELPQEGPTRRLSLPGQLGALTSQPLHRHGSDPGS

Compound | hERG current change (%, negative = inhibition) at 1uM [%]
Cc1nnc(SCC(=O)N(C2CCCCC2)C2CCS(=O)(=O)C2)n1C (centres unmarked) | 17.5
CCNC(=S)N(CCCN(C)C)Cc1cc2cc3c(cc2[nH]c1=O)OCCO3 | 3.41
CCNC(=S)N=Nc1c(O)n(Cc2ccc(Cl)cc2)c2ccccc12 | 2.86
[O-]c1c[n+](-c2ccccc2)no1 | 11.2
C[n+]1cnc(-c2ccccc2)cc1-c1ccccc1.[I-] | 9.5
Cc1cc(OCC(=O)NC2CC2)c2c(C)cc(=O)oc2c1 | 15
Cc1cccc(C(=O)Nc2nc3ccc(S(C)(=O)=O)cc3s2)c1 | 7.82
CCOC(=O)C1CCN(C(=O)CCNC(=O)c2ccccc2OC)CC1 | 12.6
CN(CC1CCN(CCc2cccc(C(F)(F)F)c2)CC1)C(=O)c1ccc(F)cc1 | -60
CC1(C)OC(=O)N(NCc2ccccc2)C1(C)O (centres unmarked) | 12.1
O=C(COC(=O)c1ccc(O)cc1O)NNC(=O)c1cccs1 | 11.9
COc1ccc(C2=CC(=O)C[C@H](c3ccc(Cl)cc3)C2)cn1 | 5.1
O=C(Nc1cccc(Cl)c1)C1=Cc2cc(Cl)ccc2OC1 | 5.28
CCOC(=O)c1cc(C)nc(S(C)(=O)=O)c1C#N | 11.8
COc1ccccc1NC(=S)N(CCCN1CCOCC1)Cc1ccccn1 | 2.97
CCN(CC(=O)NCCc1ccc(Cl)cc1)Cc1nc2ccccc2c(=O)[nH]1 | -15.7
O=C(Cc1ccc2cccnc2c1)c1ccc(O)cc1O | 16.6
O=C1/C(=C/c2ccc([N+](=O)[O-])cc2)Oc2cc(O)ccc21 | 5.48
O=C(O)CC(NC(=O)Cc1ccc([N+](=O)[O-])cc1)c1ccc2c(c1)OCO2 (centres unmarked) | 7.63
CCOc1ccc(OCc2ccc(C(=O)N(C)c3ccccc3)o2)cc1 | 11.5
O=C(Nc1ccccc1Cl)c1cc(S(=O)(=O)N2CCOCC2)cs1 | 0.216
Nc1ccn(Cc2cccc(F)c2)n1 | 14
CCSc1nc(-c2ccccc2)c2cc(Cl)ccc2n1 | 12.4

Compound | hERG current change (%, negative = inhibition) at 1uM [%]
Cn1c(=O)c2c(nc(CN3CCN(C(c4ccccc4)c4ccccc4)CC3)n2CC(N)=O)n(C)c1=O | -1.66
O=C(c1ccc(CS(=O)(=O)c2cccc(C(F)(F)F)c2)o1)N1CCN(c2ccccn2)CC1 | -15.1
O=C1N/C(=N\c2ccccn2)SC1Cc1ccc(Cl)cc1 (centres unmarked) | 9.93
O=C(COc1cc(Cl)ccc1Cl)Nc1nnc(CC(=O)N2CCOCC2)s1 | 7.03
CC(Oc1ccc2oc(-c3ccccc3)c(C(=O)O)c2c1)C(=O)O (centres unmarked) | 12.8
O=C(CN1C(=O)NC2(CCCC2)C1=O)Nc1cccc(Cl)c1Cl | 14.8
O=C(O)CC(Cc1ccccc1)c1ccc2c(c1)OCO2 (centres unmarked) | 12.4
CCC(C)N1CCN(S(=O)(=O)Cc2ccccc2)CC1 (centres unmarked) | 12.9
Cc1csc(NC(=O)c2cccnc2)n1 | 19.3
CCOC(=O)c1cc(C(O)(C(F)(F)F)C(F)(F)F)c(/N=C/N(C)C)o1 | 9.91
CCc1c(C)nc(N)n2c(SCC(=O)Nc3ccccc3OC)nnc12 | 11
COCCn1nnnc1C(c1cccc(C#N)c1)N1CCCCCC1.Cl (centres unmarked) | -1.89
CC(C)NC(=O)C(Cc1ccccc1)N1C(=O)c2ccccc2C1=O (centres unmarked) | 4.68
Nc1cc(=O)[nH]c(SCC(=O)N2CCC(Cc3ccccc3)CC2)n1 | 9.62
COc1ccc(-n2c(N)c(C(=O)Nc3c(C)n(C)n(-c4ccccc4)c3=O)c3nc4ccccc4nc32)cc1 | -13.9
Cc1cc(NC(=O)CSc2nc3ccccc3n2CCC#N)no1 | 11.9
CCn1cc(C(=O)N[C@@H](C)C(=O)NCCO)c(=O)c2cc3c(cc21)OCO3 | 13.4
CCn1c(SCc2ccccc2)nc2cc(OC)c(OC)cc2c1=O | 9.49
CC(C)CNC(=O)c1ccccc1NC(=O)/C=C/c1cccc([N+](=O)[O-])c1 | 23.5
CCCS(=O)(=O)N1CCCC(C(=O)N2CCC3(CC2)OCCO3)C1 (centres unmarked) | 13.3
CCOc1ccccc1C(C(=O)NC1CCCC1)N(C(=O)c1csnn1)C1CC1 (centres unmarked) | 13.9
Cc1c(NC(=S)Nc2ccccc2C(F)(F)F)cccc1[N+](=O)[O-] | 11.2
c1ccc(-c2ccc(SCc3cccnc3)nn2)nc1 | 10.7

Compound | hERG current change (%, negative = inhibition) at 1uM [%]
CNC(=O)Cn1c(C)cc(=O)c2cccc(OC)c21 | 10.6
Cc1ccc(OCC(=O)NCCc2nc3ccccc3[nH]2)c(C)c1 | 2.02
CCc1ccccc1NC(=O)COc1ccc2c(c1)OCO2 | 10.6
CN(c1ccc(C(=O)Nc2nccs2)cc1)S(=O)(=O)c1ccccc1 | 0.38
COc1ccc(CCNC(=O)CSc2nnc(NC(C)=O)s2)cc1OC | -2.18
O=C(O)C1CC(=O)N(Cc2ccccc2)C1 (centres unmarked) | 17.6
CC(C)Cn1cc(C(=O)N2CCN(c3ccccn3)CC2)c2c3ccccc3n(C)c2c1=O | 0.523
COCCC1CCCCN1C(=O)c1cc(COc2ccc(-n3cncn3)cc2)on1 (centres unmarked) | 2.41
Cc1cc(NC(=O)/C=C/c2ccccc2)c(C(C)C)cc1O | 10.9
O=C(CNC(=O)c1cccs1)N/N=C/c1cccc(Cl)c1 | 1.43
Cc1ccc(C)c(NC(=O)CCn2cnnn2)c1 | 13.3
CCOc1ccc(N(C(=O)c2snc(C(N)=O)c2N)C(C(=O)NC2CCCC2)C(C)C)cc1 (centres unmarked) | 14.7
O=C(NCCSc1ccccc1)c1ccccc1Cl | 10.7
CC1(C)N=C(N)N=C(N)N1c1cccc(C(=O)O)c1.Cl | 4.86
CC1CCc2c(sc3ncnc(SCC(=O)c4ccccc4)c23)C1 (centres unmarked) | 18.2
COc1cc(/C=N\NC(=O)c2ccc(-c3ccccc3)cc2)cc(Br)c1O | 12.8
Cc1ccc(NC(=O)Cn2nnc3ccccc32)c(C)c1 | 10.3
CCCS(=O)(=O)NCCc1csc(-c2ccc(OC)c(OC)c2)n1 | 13
CC(CNC(=S)Nc1cc(F)cc(F)c1)CSc1ccc(Cl)cc1 (centres unmarked) | 7.47
CCCCOC(=O)c1ccc(NC(=O)C(=O)NCc2cccnc2)cc1 | 14.1
COc1cccc(NC(=O)COC(=O)/C=C/c2ccco2)c1 | 8.74
COc1cccc(/C=N/NC(=O)c2cccc(N3CCCC3=O)c2)c1 | 3.02
C=Cn1cc[n+](CC(=O)c2ccc(Br)cc2)c1.[Br-] | 15.1

Compound | hERG current change (%, negative = inhibition) at 1uM [%]
CCOC(=O)[C@@H]1[C@H]2COc3ccc(Br)cc3[C@@H]2N2C(=O)N(c3cccc(C)c3)C(=O)[C@]12C | 8.78
CCc1ccc(OCCNc2cc(N3CCNC(C)C3)ccc2[N+](=O)[O-])cc1 (centres unmarked) | 13.6
COCCCNC(=O)CSc1ccsc1[N+](=O)[O-] | 4.79
C=CCOC(=O)C1=C[C@@H](c2ccc(C(F)(F)F)cc2)C[C@@H](OCc2ccc(CO)cc2)O1 | 18.3
CCc1cc(=O)[nH]c(SCC(=O)N2CCC(Cc3ccccc3)CC2)n1 | -3.78
O=C(Nc1ccc2[nH]c(=S)sc2c1)Nc1ccccc1F | 11.1
Cc1ccc(C(=O)Nc2cccnc2)cc1S(=O)(=O)N1CCOCC1 | 11.3
CCC[n+]1cn(/C(C(=S)Nc2cccc(Cl)c2C)=C(/[O-])c2ccc(OC)c(OC)c2)c2ccccc21 | 2.8
CCN(CC)S(=O)(=O)c1cccc(NC(=O)CN(C)Cc2cccc(OC)c2)c1.O=C(O)C(=O)O | -6.88
Cc1cc(C)c(C(=O)O)c(CC(C)(C)C(=O)O)c1 | 17.2
Cc1cc(C)nc(Sc2ccc(/C=C(\C#N)C(=O)Nc3ccccc3)o2)n1 | 13.4
O=C(NCCC1=CCCCC1)c1c(O)nc2sccn2c1=O | 10.7
CN1CCC(=NNC(=O)CN(c2cccc(Cl)c2)S(C)(=O)=O)CC1 | 16.9
CN(C)c1ccc(C(=O)Nc2ccc(S(=O)(=O)NC3=NCCCCC3)cc2)cc1 | 1.85
Cc1ccc(N2CC(C(=O)Nc3c(C)n(C)n(-c4ccccc4)c3=O)CC2=O)cc1 (centres unmarked) | 10.6
O=C(C1COc2ccccc2O1)N1CCN(Cc2ccc(Br)cc2F)CC1 (centres unmarked) | 2.23
O=C1NNC(=O)C2C3C=CC(C4CC34)C12 (centres unmarked) | -4.48
COc1ccc(-n2c(Cn3c(=O)sc4ccccc43)nnc2SC)cc1 | 3.15
COc1ccc(NS(=O)(=O)c2ccc(O)c(NC(=O)c3cc4c(C)nn(-c5ccc(F)cc5)c4s3)c2)cc1 | 12.6
CCC/C(O)=C1\C(=O)CC(C)(C)CC1=NCCO | 10.8
